These results are taken from PubChem BioAssay AID1845199 (Molecular Pharmacology Branch, DTP, NCI, 2023).

For this assay, the system named is 556581-035-R-J1 tumor spheroid viability, % test/control. As to the kind of experiment: Anticancer human tumor 556581-035-R-J1 patient-derived ovarian carcinoma cell line growth inhibition. To be noted: stronger effect = lower value, spheroids with HUVEC and MSC. From the text: Multicellular complex tumor spheroid response to DNA repair inhibitors in combination with DNA-damaging drugs
This study explores the anticancer activities of DNA-damaging drugs and inhibitors of DNA damage repair, both as single agents and in combinations. Complex tumor spheroids comprised of malignant cells, endothelial cells and mesenchymal stem cells served as an in vitro model for human solid tumors. This model system incorporates physiologically relevant features and patient-derived or established malignant cell lines with clinically relevant genetic alterations from many tumor types. Twenty-six patient-derived or established malignant cell lines were evaluated representing sarcoma, melanoma, small cell lung cancer (SCLC), non-small cell lung cancer (NSCLC), as well as bladder, ovarian and pancreatic cancers. The concentration ranges selected for each drug and investigational agent were based upon clinically achievable concentrations if the clinical Cmax of the agent was known.
Compounds. The drugs and compounds olaparib (NSC753686), talazoparib (NSC767125), berzosertib (NSC777718), elimusertib (NSC800525), nedisertib (NSC802822), VX-984 (NSC792969), AZD-1390 (NSC803789), temozolomide (NSC362856), topotecan (NSC609699), trabectedin (NSC813783), staurosporine (NSC755774), and gemcitabine (NSC613327) were obtained from the National Cancer Institute (NCI) Developmental Therapeutics Program Chemical Repository. The FDA-approved anticancer drug set is available from the Developmental Therapeutics Program at https://dtp.cancer.gov/organization/dscb/obtaining/available_plates.htm. […] The stock solutions were prepared in dimethyl sulfoxide (DMSO, Sigma-Aldrich, St. Louis, MO, cat. D2650) at 400-fold the tested concentration and stored at -70 degrees C. Prior to their use, the stock solutions were diluted in fresh medium and the final DMSO concentration in the assay was 0.25% (v/v). All drugs and investigational agents were tested over a range starting from a high concentration at or near the clinical Cmax and decreasing in half-log increments. If the clinical Cmax for an agent had not been determined, the highest concentration tested was 10 microM.
Cell Lines. The patient-derived cancer cell (PDC) lines: 156681-154-R-J1-PDC, 283228-195-R-J1-PDC, 287954-098-R-J1-PDC, 292921-168-R-J2-PDC, 349418-098-R-PDC, 425362-245-T-J1-PDC, 556581-035-R-J1-PDC, and BL0293-F563-PDC were received from the NCI Patient-Derived Models Repository (PDMR, https://pdmr.cancer.gov). The established cell lines HS-SY-2 (RRID:CVCL_8719), MPNST, and SYO-1 (RRID:CVCL_7146) were obtained from the Sloan Kettering Institute. The alveolar soft parts sarcoma cell line ASPS-1 (RRID:CVCL_S738) was established at the NCI and grown from internal seed stocks. […]

For part of its entries the source gives two or more results. This is not the full list of results. An entry can have further records. The values listed for one entry repeat one measurement in other runs, samples, wells, individuals or studies. Additions like (4×) count equal records among those shown.
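Further: spheroids exposed to compounds for 7 days before viability read.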

By viability, T/C is commonly meant the ratio of treated to control. On to `CC[C@@]1(O)C(=O)OCc2c1cc1n(c2=O)Cc2cc3c(CN(C)C)c(O)ccc3nc2-1`, for which the viability, T/C (compound alone 0.00949 µM) is 95.1, 103, 87.7, 76, 83.9, 90.9, 86.8, 90.7, 93.5, 84.8%.
For `COc1cc2c(cc1O)CCNC21CSC2c3c(OC(C)=O)c(C)c4c(c3C(COC1=O)N1C(O)C3Cc5cc(C)c(OC)c(O)c5C(C21)N3C)OCO4` (centres undefined), the viability, T/C (compound 30 pM) is listed as 98.7, 113, 106, 102, 68.3, 103, 107, 105, 99.4, 97.4%.
`Cn1nnc2c(C(N)=O)ncn2c1=O`: the viability, T/C by setting is: (compound alone 3.16 µM) 98, 94.7, 101 (2×), 117, 110, 104, 103, 106, 90.7%; (compound alone 100 µM) 92.2, 104, 107, 94.2, 110 (2×), 106, 96.7, 130, 105%.
